Assay results published in paper PMC4945878.
Read-outs that look alike come from different tables or passages of the source. No constants are given. Whether binding was seen depends on the method and setting. For some of these results: In cells and extracts the contact can be indirect. Some entries that bind do so weakly or less than the wild type. For some of these results: Tags and fused reporters may be left off the sequences shown.

Amino acid sequences for entries named in this document (tags omitted). A change or cut given only in a name is not applied to a line headed by its entry. Chains listed by the source or under a name are the forms on record and can include a tag or linker. Residues count along the entry.
UniProt Q9HAW4: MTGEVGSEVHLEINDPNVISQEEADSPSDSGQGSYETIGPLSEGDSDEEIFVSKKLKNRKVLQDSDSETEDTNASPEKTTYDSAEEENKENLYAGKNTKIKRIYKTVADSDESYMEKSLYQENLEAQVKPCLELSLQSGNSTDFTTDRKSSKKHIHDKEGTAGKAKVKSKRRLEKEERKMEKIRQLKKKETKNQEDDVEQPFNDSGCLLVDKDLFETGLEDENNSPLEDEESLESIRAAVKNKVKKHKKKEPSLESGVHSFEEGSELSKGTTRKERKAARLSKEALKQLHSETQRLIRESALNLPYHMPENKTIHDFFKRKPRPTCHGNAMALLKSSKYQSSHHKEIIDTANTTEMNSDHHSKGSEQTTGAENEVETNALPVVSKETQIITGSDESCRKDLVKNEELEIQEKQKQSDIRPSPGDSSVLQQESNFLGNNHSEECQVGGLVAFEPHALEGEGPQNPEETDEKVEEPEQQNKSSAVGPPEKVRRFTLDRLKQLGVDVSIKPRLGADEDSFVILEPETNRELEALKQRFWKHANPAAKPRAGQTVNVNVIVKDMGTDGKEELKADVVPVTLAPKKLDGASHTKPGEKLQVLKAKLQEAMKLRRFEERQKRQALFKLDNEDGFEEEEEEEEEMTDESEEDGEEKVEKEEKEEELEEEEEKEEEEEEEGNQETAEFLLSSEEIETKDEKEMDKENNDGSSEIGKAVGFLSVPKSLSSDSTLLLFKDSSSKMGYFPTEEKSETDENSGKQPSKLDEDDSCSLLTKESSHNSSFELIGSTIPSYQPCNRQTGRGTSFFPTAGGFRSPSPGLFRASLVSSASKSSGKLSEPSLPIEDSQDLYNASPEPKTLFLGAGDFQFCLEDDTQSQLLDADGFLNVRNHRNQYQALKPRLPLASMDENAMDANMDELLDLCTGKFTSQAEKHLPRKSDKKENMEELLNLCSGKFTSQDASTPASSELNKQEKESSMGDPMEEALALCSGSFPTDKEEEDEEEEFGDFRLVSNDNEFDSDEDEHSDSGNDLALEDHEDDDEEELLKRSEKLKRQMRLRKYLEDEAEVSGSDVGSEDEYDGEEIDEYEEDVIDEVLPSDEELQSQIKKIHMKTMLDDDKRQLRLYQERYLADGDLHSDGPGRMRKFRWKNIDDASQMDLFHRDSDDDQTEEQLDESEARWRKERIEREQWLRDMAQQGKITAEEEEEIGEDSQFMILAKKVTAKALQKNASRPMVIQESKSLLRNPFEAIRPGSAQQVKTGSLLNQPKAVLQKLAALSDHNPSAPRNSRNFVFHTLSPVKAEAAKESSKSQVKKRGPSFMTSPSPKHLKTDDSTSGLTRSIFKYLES
Claspin #26 (aa1-985), 3xFlag: residues 1-985 of Q9HAW4
Claspin #25 (aa1-896), 3xFlag: residues 1-896 of Q9HAW4
Claspin #2 (aa1-350), 3xFlag: residues 1-350 of Q9HAW4
Claspin PIP mutant, full length, 3xFlag (Q9HAW4, form named): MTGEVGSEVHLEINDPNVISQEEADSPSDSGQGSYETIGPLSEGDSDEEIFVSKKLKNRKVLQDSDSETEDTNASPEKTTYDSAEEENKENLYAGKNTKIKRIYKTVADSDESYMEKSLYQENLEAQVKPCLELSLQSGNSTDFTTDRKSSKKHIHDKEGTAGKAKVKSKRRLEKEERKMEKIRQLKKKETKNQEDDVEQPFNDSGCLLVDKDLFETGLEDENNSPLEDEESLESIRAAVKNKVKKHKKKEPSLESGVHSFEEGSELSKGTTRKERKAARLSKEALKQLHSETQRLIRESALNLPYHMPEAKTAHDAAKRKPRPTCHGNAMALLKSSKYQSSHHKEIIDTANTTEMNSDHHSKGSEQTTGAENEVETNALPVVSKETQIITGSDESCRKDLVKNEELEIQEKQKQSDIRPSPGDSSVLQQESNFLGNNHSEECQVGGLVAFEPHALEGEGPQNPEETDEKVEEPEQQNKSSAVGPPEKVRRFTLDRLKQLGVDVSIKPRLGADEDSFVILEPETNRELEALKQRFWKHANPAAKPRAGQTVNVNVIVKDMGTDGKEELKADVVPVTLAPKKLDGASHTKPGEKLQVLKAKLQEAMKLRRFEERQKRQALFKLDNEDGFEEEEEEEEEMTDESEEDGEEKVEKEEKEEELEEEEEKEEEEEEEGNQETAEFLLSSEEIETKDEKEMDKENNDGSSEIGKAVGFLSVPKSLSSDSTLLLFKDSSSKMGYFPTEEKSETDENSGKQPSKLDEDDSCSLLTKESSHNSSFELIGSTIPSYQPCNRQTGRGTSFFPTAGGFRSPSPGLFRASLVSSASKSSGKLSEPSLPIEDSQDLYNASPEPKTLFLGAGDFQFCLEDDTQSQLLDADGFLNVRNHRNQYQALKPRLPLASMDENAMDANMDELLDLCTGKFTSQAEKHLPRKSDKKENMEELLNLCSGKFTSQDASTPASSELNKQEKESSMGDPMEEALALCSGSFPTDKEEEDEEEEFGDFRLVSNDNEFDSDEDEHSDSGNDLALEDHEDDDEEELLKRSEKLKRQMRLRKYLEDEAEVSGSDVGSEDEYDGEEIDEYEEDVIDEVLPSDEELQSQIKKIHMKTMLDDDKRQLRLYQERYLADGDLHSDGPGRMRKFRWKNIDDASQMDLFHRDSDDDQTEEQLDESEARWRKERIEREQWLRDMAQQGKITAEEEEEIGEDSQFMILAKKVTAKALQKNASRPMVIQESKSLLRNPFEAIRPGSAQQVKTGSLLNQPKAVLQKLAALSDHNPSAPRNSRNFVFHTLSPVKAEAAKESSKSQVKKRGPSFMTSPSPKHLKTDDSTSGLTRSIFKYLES
Claspin #24 (aa1-350+aa897-1,339), 3xFlag (Q9HAW4, form named): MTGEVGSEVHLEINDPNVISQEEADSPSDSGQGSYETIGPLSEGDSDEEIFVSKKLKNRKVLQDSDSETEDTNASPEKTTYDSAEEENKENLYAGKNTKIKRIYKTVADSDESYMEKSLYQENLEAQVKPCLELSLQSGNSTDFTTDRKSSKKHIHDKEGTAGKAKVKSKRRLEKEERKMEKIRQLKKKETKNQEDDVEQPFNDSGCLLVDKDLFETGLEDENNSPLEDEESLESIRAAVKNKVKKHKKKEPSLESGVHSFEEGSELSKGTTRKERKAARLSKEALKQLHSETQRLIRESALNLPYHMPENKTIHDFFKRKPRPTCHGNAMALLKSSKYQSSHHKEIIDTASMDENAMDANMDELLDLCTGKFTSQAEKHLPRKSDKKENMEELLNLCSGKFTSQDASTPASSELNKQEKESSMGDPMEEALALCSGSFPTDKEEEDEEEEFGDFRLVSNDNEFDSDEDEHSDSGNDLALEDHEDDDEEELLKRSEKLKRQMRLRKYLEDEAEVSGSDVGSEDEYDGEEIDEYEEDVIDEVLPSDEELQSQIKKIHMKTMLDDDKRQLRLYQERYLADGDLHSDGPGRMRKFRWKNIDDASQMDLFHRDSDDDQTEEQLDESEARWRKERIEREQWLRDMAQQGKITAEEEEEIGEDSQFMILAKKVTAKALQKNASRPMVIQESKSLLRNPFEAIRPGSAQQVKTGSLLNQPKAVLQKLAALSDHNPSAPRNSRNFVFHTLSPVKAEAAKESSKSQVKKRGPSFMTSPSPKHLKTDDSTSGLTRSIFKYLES
Claspin #2 (aa1-350) PIP mutant, 3xFlag (Q9HAW4, form named): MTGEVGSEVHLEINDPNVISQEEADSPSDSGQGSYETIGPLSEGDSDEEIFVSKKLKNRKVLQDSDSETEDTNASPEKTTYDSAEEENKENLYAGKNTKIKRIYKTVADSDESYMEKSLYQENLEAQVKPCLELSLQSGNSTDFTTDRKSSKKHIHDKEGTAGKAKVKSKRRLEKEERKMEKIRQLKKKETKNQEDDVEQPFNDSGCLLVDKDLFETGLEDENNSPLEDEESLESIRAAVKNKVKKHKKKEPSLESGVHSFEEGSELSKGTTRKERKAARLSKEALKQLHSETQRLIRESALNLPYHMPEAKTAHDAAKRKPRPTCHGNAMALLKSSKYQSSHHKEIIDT
UniProt O00311: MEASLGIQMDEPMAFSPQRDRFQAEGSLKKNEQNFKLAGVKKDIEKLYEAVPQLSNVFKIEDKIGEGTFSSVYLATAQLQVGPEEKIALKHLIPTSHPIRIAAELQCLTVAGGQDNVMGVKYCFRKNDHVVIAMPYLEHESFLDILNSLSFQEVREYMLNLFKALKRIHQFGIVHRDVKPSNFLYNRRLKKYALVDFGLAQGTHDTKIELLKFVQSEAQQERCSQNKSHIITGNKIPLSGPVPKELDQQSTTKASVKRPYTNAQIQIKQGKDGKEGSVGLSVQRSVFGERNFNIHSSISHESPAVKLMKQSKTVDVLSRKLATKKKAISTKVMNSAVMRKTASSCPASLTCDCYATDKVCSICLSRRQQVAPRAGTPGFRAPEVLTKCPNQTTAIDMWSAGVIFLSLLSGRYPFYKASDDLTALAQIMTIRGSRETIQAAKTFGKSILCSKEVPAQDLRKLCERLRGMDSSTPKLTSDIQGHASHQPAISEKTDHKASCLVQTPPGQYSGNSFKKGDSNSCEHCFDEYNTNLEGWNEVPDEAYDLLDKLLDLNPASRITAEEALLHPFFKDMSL
UniProt P12004: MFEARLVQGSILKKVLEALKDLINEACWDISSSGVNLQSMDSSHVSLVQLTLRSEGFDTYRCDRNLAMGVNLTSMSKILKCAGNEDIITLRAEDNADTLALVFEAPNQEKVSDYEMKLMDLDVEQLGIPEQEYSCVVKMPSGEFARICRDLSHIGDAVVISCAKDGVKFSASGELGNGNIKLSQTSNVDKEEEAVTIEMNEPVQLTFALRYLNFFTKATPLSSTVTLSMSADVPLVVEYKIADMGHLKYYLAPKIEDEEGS
UniProt Q9UNS1: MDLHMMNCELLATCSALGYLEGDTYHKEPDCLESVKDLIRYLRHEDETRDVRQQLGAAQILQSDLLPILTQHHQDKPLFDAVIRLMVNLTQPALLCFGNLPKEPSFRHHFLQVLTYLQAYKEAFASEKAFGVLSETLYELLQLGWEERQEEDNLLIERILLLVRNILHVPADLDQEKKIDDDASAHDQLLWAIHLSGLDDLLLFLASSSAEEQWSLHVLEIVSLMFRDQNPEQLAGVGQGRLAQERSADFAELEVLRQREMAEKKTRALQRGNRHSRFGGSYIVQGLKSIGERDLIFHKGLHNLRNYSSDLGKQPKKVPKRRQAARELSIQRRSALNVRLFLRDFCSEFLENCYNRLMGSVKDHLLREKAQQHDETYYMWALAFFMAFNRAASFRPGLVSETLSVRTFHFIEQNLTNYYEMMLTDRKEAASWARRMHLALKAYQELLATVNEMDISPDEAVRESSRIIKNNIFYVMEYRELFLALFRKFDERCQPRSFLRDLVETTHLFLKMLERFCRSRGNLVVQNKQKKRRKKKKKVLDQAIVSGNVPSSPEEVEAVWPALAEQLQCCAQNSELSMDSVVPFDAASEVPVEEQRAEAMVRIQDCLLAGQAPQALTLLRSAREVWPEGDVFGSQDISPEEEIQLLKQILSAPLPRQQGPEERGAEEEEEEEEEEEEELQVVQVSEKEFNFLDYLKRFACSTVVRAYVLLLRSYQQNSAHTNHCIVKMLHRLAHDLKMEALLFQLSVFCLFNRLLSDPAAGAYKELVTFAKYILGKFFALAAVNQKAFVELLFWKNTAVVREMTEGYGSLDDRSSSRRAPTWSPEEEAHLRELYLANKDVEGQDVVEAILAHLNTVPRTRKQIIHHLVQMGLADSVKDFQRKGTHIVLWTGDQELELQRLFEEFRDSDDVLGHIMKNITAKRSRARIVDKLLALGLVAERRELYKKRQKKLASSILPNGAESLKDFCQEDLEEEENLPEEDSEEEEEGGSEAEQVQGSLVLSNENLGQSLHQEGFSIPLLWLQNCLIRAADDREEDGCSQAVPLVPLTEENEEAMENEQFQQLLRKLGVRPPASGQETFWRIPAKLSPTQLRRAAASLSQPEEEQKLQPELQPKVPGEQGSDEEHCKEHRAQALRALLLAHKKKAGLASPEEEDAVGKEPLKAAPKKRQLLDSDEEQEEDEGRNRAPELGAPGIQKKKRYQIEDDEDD

Legend:
[1] = target: Claspin #26 (aa1-985), 3xFlag (human) (UniProt Q9HAW4); assay: co-IP; Claspin or its derivatives, 3xFlag at the C terminus, transiently expressed in 293T cells; lysate in CSK buffer with 0.1% TritonX-100 and Benzonase; anti-Flag M2 affinity beads 60 min at 4 °C; endogenous partners detected by western blotting; also told for Cdc7-depleted cells (Supplementary Fig. 9)
[2] = target: Claspin PIP mutant, full length, 3xFlag (human) (UniProt Q9HAW4); assay: as above
[3] = target: Claspin #25 (aa1-896), 3xFlag (human) (UniProt Q9HAW4); assay: as above
[4] = target: Claspin #18 (aa897-1,339), 3xFlag (human) (UniProt Q9HAW4); assay: as above
[5] = target: Claspin #27 (aa897-1,100), 3xFlag (human) (UniProt Q9HAW4); assay: as above
[6] = target: Claspin #24 (aa1-350+aa897-1,339), 3xFlag (human) (UniProt Q9HAW4); assay: as above
[7] = target: Claspin, wild type, full length (6His-Claspin-3Flag) (human) (UniProt Q9HAW4); assay: as above
[8] = target: Claspin #13 (aa897-1,209), 3xFlag (human) (UniProt Q9HAW4); assay: as above
[9] = target: Claspin, wild type, full length (6His-Claspin-3Flag) (human) (UniProt Q9HAW4); assay: pull-down; purified Flag-tagged Claspin (wild type or mutant) incubated with PCNA or Cdc7-ASK in 40 mM HEPES-KOH (pH 7.6), 100 mM K-glutamate, 1 mM MgCl2, 1 mM EGTA, 0.01% TritonX-100, 0.1 mM ATP at 4 °C for 1 h; recovered on anti-Flag beads; western blotting; both purified
[10] = target: Claspin #25 (aa1-896), 3xFlag (human) (UniProt Q9HAW4); assay: co-IP; Flag-tagged N-terminal segment #25 coexpressed in 293T cells with HA-tagged C-terminal polypeptides, pulled down with M2 Flag beads, blot with anti-HA; with or without coexpressed HA-Cdc7 (wild type or kinase dead) and myc-ASK; the text of p-0017 says purified proteins were mixed
[11] = target: Claspin #2 (aa1-350), 3xFlag (human) (UniProt Q9HAW4); assay: pull-down; purified Flag-tagged Claspin (wild type or mutant) incubated with PCNA or Cdc7-ASK in 40 mM HEPES-KOH (pH 7.6), 100 mM K-glutamate, 1 mM MgCl2, 1 mM EGTA, 0.01% TritonX-100, 0.1 mM ATP at 4 °C for 1 h; recovered on anti-Flag beads; western blotting; both purified
[12] = target: Claspin #2 (aa1-350) PIP mutant, 3xFlag (human) (UniProt Q9HAW4); assay: condition: PCNA, 1.2 or 3.0 pmol; Claspin polypeptide 1.2 pmol; pull-down; purified Flag-tagged Claspin (wild type or mutant) incubated with PCNA or Cdc7-ASK in 40 mM HEPES-KOH (pH 7.6), 100 mM K-glutamate, 1 mM MgCl2, 1 mM EGTA, 0.01% TritonX-100, 0.1 mM ATP at 4 °C for 1 h; recovered on anti-Flag beads; western blotting; both purified
[13] = target: Claspin #2 (aa1-350), 3xFlag (human) (UniProt Q9HAW4); assay: co-IP; Claspin or its derivatives, 3xFlag at the C terminus, transiently expressed in 293T cells; lysate in CSK buffer with 0.1% TritonX-100 and Benzonase; anti-Flag M2 affinity beads 60 min at 4 °C; endogenous partners detected by western blotting; also told for Cdc7-depleted cells (Supplementary Fig. 9)
[14] = target: Claspin #25 (aa1-896), 3xFlag (human) (UniProt Q9HAW4); assay: co-IP; Flag-tagged #25 expressed in 293T cells alone or with HA-tagged C-terminal polypeptides (#13, #27); M2 Flag beads; blot for associated endogenous PCNA
[15] = target: Claspin PIP mutant, full length, 3xFlag (human) (UniProt Q9HAW4); assay: co-IP; Claspin or its derivatives, 3xFlag at the C terminus, transiently expressed in 293T cells; lysate in CSK buffer with 0.1% TritonX-100 and Benzonase; anti-Flag M2 affinity beads 60 min at 4 °C; endogenous partners detected by western blotting; also told for Cdc7-depleted cells (Supplementary Fig. 9); remark: listed apart in the source
[16] = target: Claspin, wild type, full length (6His-Claspin-3Flag) (human) (UniProt Q9HAW4); assay: as above; remark: listed apart in the source
[17] = target: Claspin, wild type, full length (6His-Claspin-3Flag) (human) (UniProt Q9HAW4); assay: co-IP; purified Claspin (wild type or DE/A) with purified Pol ɛ or Cdc45, coimmunoprecipitation in vitro (Supplementary Fig. 10); conditions not shown; both purified

ATR (from UniProt Q13535 1-2644) (enzyme)
binding [1]: binds weakly | binding [2]: binds | binding [3]: binds weakly

Cdc7 kinase (from UniProt O00311 1-574) (enzyme)
binding [4]: binds weakly | binding [2]: binds | binding [5]: binds | binding [6]: binds weakly | binding [7]: binds | binding [8]: binds

Cdc7-ASK complex, purified (from UniProt O00311 1-574; Q9UBU7 1-674)
binding [9]: binds

Claspin #13 (aa897-1,209), HA-tagged (from UniProt Q9HAW4 897-1209) (domain or fragment)
binding [10]: binds

Claspin #18 (aa897-1,339), HA-tagged (from UniProt Q9HAW4 897-1339) (domain or fragment)
binding [10]: binds

Claspin #27 (aa897-1,100), HA-tagged (from UniProt Q9HAW4 897-1100) (domain or fragment)
binding [10]: binds

PCNA (BioAcademia) (from UniProt P12004 1-261)
binding [11]: binds | binding [9]: binds | binding [12]: no binding

PCNA (endogenous) (from UniProt P12004 1-261)
binding [13]: binds | binding [7]: binds | binding [14]: binds

Tim (from UniProt Q9UNS1 1-1208)
binding [13]: binds | binding [2]: binds | binding [7]: binds

B1: Cdc45 (endogenous) (protein, UniProt O75419 1-566)
chain: MFVSDFRKEFYEVVQSQRVLLFVASDVDALCACKILQALFQCDHVQYTLVPVSGWQELETAFLEHKEQFHYFILINCGANVDLLDILQPDEDTIFFVCDTHRPVNVVNVYNDTQIKLLIKQDDDLEVPAYEDIFRDEEEDEEHSGNDSDGSEPSEKRTRLEEEIVEQTMRRRQRREWEARRRDILFDYEQYEYHGTSSAMVMFELAWMLSKDLNDMLWWAIVGLTDQWVQDKITQMKYVTDVGVLQRHVSRHNHRNEDEENTLSVDCTRISFEYDLRLVLYQHWSLHDSLCNTSYTAARFKLWSVHGQKRLQEFLADMGLPLKQVKQKFQAMDISLKENLREMIEESANKFGMKDMRVQTFSIHFGFKHKFLASDVVFATMSLMESPEKDGSGTDHFIQALDSLSRSNLDKLYHGLELAKKQLRATQQTIASCLCTNLVISQGPFLYCSLMEGTPDVMLFSRPASLSLLSKHLLKSFVCSTKNRRCKLLPLVMAAPLSMEHGTVTVVGIPPETDSSDRKNFFGRAFEKAAESTSSRMLHNHFDLSVIELKAEDRSKFLDALISLLS
binding [15]: binds | binding [16]: binds

B2: 6His-Cdc45-HA (protein, UniProt O75419 1-566)
chain: MFVSDFRKEFYEVVQSQRVLLFVASDVDALCACKILQALFQCDHVQYTLVPVSGWQELETAFLEHKEQFHYFILINCGANVDLLDILQPDEDTIFFVCDTHRPVNVVNVYNDTQIKLLIKQDDDLEVPAYEDIFRDEEEDEEHSGNDSDGSEPSEKRTRLEEEIVEQTMRRRQRREWEARRRDILFDYEQYEYHGTSSAMVMFELAWMLSKDLNDMLWWAIVGLTDQWVQDKITQMKYVTDVGVLQRHVSRHNHRNEDEENTLSVDCTRISFEYDLRLVLYQHWSLHDSLCNTSYTAARFKLWSVHGQKRLQEFLADMGLPLKQVKQKFQAMDISLKENLREMIEESANKFGMKDMRVQTFSIHFGFKHKFLASDVVFATMSLMESPEKDGSGTDHFIQALDSLSRSNLDKLYHGLELAKKQLRATQQTIASCLCTNLVISQGPFLYCSLMEGTPDVMLFSRPASLSLLSKHLLKSFVCSTKNRRCKLLPLVMAAPLSMEHGTVTVVGIPPETDSSDRKNFFGRAFEKAAESTSSRMLHNHFDLSVIELKAEDRSKFLDALISLLS
binding [17]: binds
